# Measurements from PubChem BioAssay AID2147 (National Center for Advancing Translational Sciences (NCATS), 2009).
# Among all 230,000 compounds or so, about 3,600 (1.6%) were called active. Inconclusive means that the source gave no clear call. Such entries were picked first, then a sample of the others. The call rests on the fitted dose curve; in most records, active means well fitted inhibition curve with a large enough effect (not every such curve was filed as active); inconclusive means small, poorly fitted or top-dose-only effect, or another doubt; inactive means no such curve, though single readings can be large or run the other way. Potencies of inconclusive entries are doubtful fits and often do not repeat.
# Molecular target: Lysine-specific demethylase 4E (Homo sapiens) (UniProt B2RXH2)
# Chain of UniProt B2RXH2 (B2RXH2 whole entry, looked up, the tested form may be a part): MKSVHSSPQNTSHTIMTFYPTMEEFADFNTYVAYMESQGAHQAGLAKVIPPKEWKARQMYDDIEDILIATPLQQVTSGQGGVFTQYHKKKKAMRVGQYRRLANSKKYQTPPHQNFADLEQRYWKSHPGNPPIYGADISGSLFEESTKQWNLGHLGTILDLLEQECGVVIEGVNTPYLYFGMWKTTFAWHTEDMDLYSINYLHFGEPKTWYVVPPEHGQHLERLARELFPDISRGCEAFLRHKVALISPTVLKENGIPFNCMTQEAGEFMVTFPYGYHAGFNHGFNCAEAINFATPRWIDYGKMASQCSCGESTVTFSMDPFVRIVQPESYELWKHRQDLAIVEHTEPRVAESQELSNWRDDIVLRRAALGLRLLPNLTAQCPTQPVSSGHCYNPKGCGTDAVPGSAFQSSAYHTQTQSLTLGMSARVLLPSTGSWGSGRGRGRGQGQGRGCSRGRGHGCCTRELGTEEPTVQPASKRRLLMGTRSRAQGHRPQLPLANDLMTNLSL
# Test: qHTS Assay for Inhibitors of Human Jumonji Domain Containing 2E (JMJD2E)
# Conditions: JMJD2E catalytic domain, FDH-coupled NADH fluorescence (FDH is formaldehyde dehydrogenase); series mostly up to 57.1 µM; activity change, negative = inhibition: at the top concentration
# Further: nearly all actives have a fitted effect of over 50% in size.
# Potency means the concentration at half of the fitted maximal effect; tags describe the fitted curve by direction and shape.
# 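Wherever activity change, negative = inhibition is given: 0% = wells with enzyme and -100% = buffer wells without enzyme.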
Compound,Potency,"activity change, negative = inhibition"
C=CCn1c(-c2cccc(OCC)c2)n[nH]c1=S,"inconclusive: 39.8 µM [inhibitor, single point]",
O=c1c2sccc2nc(SCc2cc(=O)n3cc(Cl)ccc3n2)n1Cc1ccccn1,"inconclusive: 28.2 µM [inhibitor, partial curve]",
O=C(NCCCN1CCCC1)c1ccc2c(Cl)c3c(nc2c1)CCCC3,,inactive: -17.6%
O=C(OCC(=O)N1N=C(c2ccc(Cl)cc2)CC1c1ccco1)c1ccccc1O (stereo not given),"inconclusive: 35.5 µM [inhibitor, partial curve]",
COC(=O)C1=C(C(=O)OC)C(c2ccc(OC)c(OC)c2)c2sc(=O)[nH]c2S1 (stereo not given),"inconclusive: 28.2 µM [inhibitor, single point]",
C#Cc1ccc([C@H]2C=C(C(=O)N3CCN(Cc4ccccc4)CC3)O[C@@H](OCc3ccc(CO)cc3)C2)cc1,"inconclusive: 22.4 µM [inhibitor, single point]",
COc1ccc(C(=O)N/N=C(\CCC(=O)O)c2ccc(C(C)(C)C)cc2)cc1OC,,inactive: 45.7%
Cc1ccc2c(c1)C(=C(C#N)C#N)C(=O)N2CCN1CCOCC1,"inconclusive: 39.8 µM [inhibitor, single point]",
CCOP(=O)(OCC)/C(C#N)=C/c1ccc([N+](=O)[O-])cc1,active: 8.91 µM,
O=C(O)Cc1c(O)ccc2ccccc12,"inconclusive: 31.6 µM [inhibitor, partial curve]",
O=C(NCC(=O)N(Cc1cccs1)C(C(=O)NC1CCCCC1)c1ccco1)c1ccco1 (stereo not given),,inactive: -26.7%
O=C(O)c1ccc(-c2nc3ccccc3[nH]2)cc1,"inconclusive: 25.1 µM [inhibitor, partial curve]",
Cc1sc2ccc3sccc3c2[n+]1C,active: 14.1 µM,
CCOc1ccc(-c2nnc(-c3ccco3)o2)cc1OCC,"inconclusive: 25.1 µM [inhibitor, partial curve]",
COc1cccc([C@@H]2Oc3ccc(OC)cc3C(=O)[C@H]2OC(=O)N[C@H]2CCCc3ccccc32)c1,"inconclusive: 35.5 µM [inhibitor, partial curve]",
COc1ccc(OCCSc2nnc(Cc3cccc4ccccc34)n2N)cc1,,inactive: -3.01%
c1ccc2cc(C3=NCCN3)ncc2c1,"inconclusive: 44.7 µM [inhibitor, single point]",
Cc1cc(=O)oc2cc(OCC(=O)OCC(=O)Nc3ccccc3C(C)C)ccc12,"inconclusive: 31.6 µM [inhibitor, partial curve]",
Cc1cccc(NCC(=O)N/N=C\c2ccc[nH]2)c1,"inconclusive: 22.4 µM [inhibitor, partial curve, poor fit]",
O=c1[nH]ncc2c3ccccc3n(Cc3ccccc3F)c12,"inconclusive: 39.8 µM [inhibitor, single point]",
O=C1c2ccccc2NC(c2ccc(-c3ccc(Br)cc3)o2)N1O (stereo not given),"inconclusive: 28.2 µM [inhibitor, single point]",
COCCCn1c(CCC(=O)O)ccc1-c1cccs1,"inconclusive: 28.2 µM [inhibitor, partial curve]",
CCCn1c(=O)c(C)cn2nc(N)nc12,"inconclusive: 31.6 µM [inhibitor, partial curve]",
Cc1ccc(S(=O)(=O)N/N=c2\oc3ccccc3cc2C(=O)Nc2cccc(C)c2)cc1,,inactive: 1.7%

Compound,Potency,"activity change, negative = inhibition"
CC(C)(C)c1ccc(S(=O)(=O)Nc2ccc3c(c2)COC3=O)cc1,,inactive: 8.78%
Oc1cccc(/C=N/c2c(-c3ccco3)nc3ccccn23)c1,"inconclusive: 35.5 µM [inhibitor, single point]",
CC(C)c1nc(=S)n(-c2ccccc2)[nH]1,,inactive: -8.24%
COC(=O)/C(=C\c1ccc([N+](=O)[O-])o1)NC(=O)c1ccccc1,,inactive: -5.8%
CCOC(=O)Cc1csc(/N=C/c2c(O)n(-c3ccc(C)c(C)c3)c(=O)c3ccccc23)n1,"inconclusive: 28.2 µM [inhibitor, partial curve]",
COc1ccc(Nc2nc(-c3sc(N)nc3C)cs2)cc1,,inactive: 5.08%
O=c1cc(CN2CC(O)Cc3ccc4ccccc4c32)nc2sccn12 (stereo not given),"inconclusive: 39.8 µM [inhibitor, single point]",
CN(C)CCCNCC(=O)Nc1ccccc1N1CCOCC1,"inconclusive: 39.8 µM [inhibitor, single point]",
CC(C)(C)NC(=O)Cn1c(=O)c(=O)n(Cc2ccccc2)c2ccc(Cl)cc21,"inconclusive: 35.5 µM [inhibitor, single point]",
Cc1ccc(NC(=O)Cn2c(O)c(N=NC(=O)c3cc([N+](=O)[O-])ccc3O)c3ccccc32)cc1,,inactive: 0.483%
Cc1ccc(OCC(O)C(C)NC(C)C)c2c1CCC2 (stereo not given),,inactive: -2.24%
O=C(O)CCc1ccc(-c2cccs2)n1Cc1ccco1,"inconclusive: 35.5 µM [inhibitor, partial curve]",
CCCCN1C(=O)C2Cc3c([nH]c4ccccc34)CN2C1=S (stereo not given),"inconclusive: 39.8 µM [inhibitor, single point]",
O=C1c2ccccc2C(Nc2ccc3c(c2)OCO3)N1Cc1ccco1 (stereo not given),,inactive: -8.46%
CCOC(=O)CNC(=O)CSc1nc(-c2ccc(OC)cc2)ns1,,inactive: -13%
Cc1c(C(=O)Nc2ccc(F)cc2)oc2ccc(S(=O)(=O)N3CCC4(CC3)OCCO4)cc12,"inconclusive: 31.6 µM [inhibitor, single point]",
COc1ccccc1-c1cc2nc(C)cc(C)n2n1,"inconclusive: 8.91 µM [inhibitor, partial curve, poor fit]",
COc1cccc(OCCOCCOc2ccc(C)cc2[N+](=O)[O-])c1,,inactive: 0.629%
CCOc1cc2c(cc1OCC)C(c1ccccc1OC)OC(=O)C2 (stereo not given),"inconclusive: 35.5 µM [inhibitor, single point]",
Cn1c(/N=C/c2cc(Cl)ccc2O)nc2ccccc21,"inconclusive: 35.5 µM [inhibitor, single point]",
CN(C)c1ccc2c3c(ccc(N(C)C)c13)COC2,"inconclusive: 22.4 µM [inhibitor, partial curve]",
CCOc1ccc2oc(C(=O)OCC(=O)NC(=O)NC3CCCC3)c(C)c2c1,"inconclusive: 20 µM [inhibitor, partial curve]",
CCCc1cc(=O)[nH]c(SCC(=O)c2cc(C)n(CCC)c2C)n1,"inconclusive: 31.6 µM [inhibitor, partial curve]",
CCOC(=O)C1=C(C)NC2=C(C(=O)CC(c3cccs3)C2)C1c1cccs1 (stereo not given),"inconclusive: 14.1 µM [inhibitor, partial curve]",

Compound,Potency,"activity change, negative = inhibition"
COc1ccc(-c2nnc(Nc3nc4c(OC)cccc4s3)o2)cc1,"inconclusive: 31.6 µM [inhibitor, partial curve]",
CN(CCCNS(=O)(=O)c1cccc2cccnc12)Cc1ccccc1,"inconclusive: 39.8 µM [inhibitor, single point]",
CN(c1cccc(NC(=O)c2ccc(C(C)(C)C)cc2)c1)S(C)(=O)=O,,inactive: -4.15%
CN(C)CCCn1c(N)c(C#N)c2nc3ccccc3nc21,"inconclusive: 28.2 µM [inhibitor, partial curve]",
COc1ccc(NC(=O)Nc2cccnc2)cc1,"inconclusive: 39.8 µM [inhibitor, single point]",
CCN1CCN(Cc2c(C)[nH]c3ccc(OC)cc3c2=O)CC1,"inconclusive: 25.1 µM [inhibitor, partial curve]",
NNC(=O)c1[nH]c2ccc(Cl)cc2c1-c1ccccc1,"inconclusive: 39.8 µM [inhibitor, single point]",
COc1cc(NC(=O)C2CC2)c(C(=O)O)cc1OC,"inconclusive: 28.2 µM [inhibitor, single point]",
CCn1cc(C(=O)NCCCOC)c2cc(OC)c(OC)cc2c1=O,"inconclusive: 31.6 µM [inhibitor, single point]",
NS(=O)(=O)c1ccc(NC(=S)NNC(=O)c2cccs2)cc1,"inconclusive: 39.8 µM [inhibitor, single point]",
Cc1cc(C)cc(NC(=O)Cn2c(=O)oc3cc(S(=O)(=O)N4CC(C)CC(C)C4)ccc32)c1 (stereo not given),,inactive: -4.32%
COc1cc(-c2nnc(-c3ccc(N4CCOCC4)cc3)o2)cc(OC)c1OC,"inconclusive: 7.94 µM [inhibitor, full curve]",
CCOc1cc(C(=O)Nc2nnc(CC)s2)ccc1OCC(=O)N1CCOCC1,"inconclusive: 17.8 µM [inhibitor, partial curve]",
CC(C)CN=c1cc(-c2ccccc2)oc2ccc(Cl)cc12,,inactive: -21.6%
Cc1sc(/C=C2\C(=O)ON=C2c2ccccc2)cc1Br,,inactive: 11.2%
COc1ccccc1NC(=O)c1ccc(NC(=O)Cc2n[nH]c(=O)c3ccccc23)cc1,"inconclusive: 31.6 µM [inhibitor, single point]",
CCN1CCN(c2cc(C)c3cc(NC(=S)N4CCN(c5ccc(F)cc5)CC4)ccc3n2)CC1,"inconclusive: 8.91 µM [inhibitor, full curve]",
COc1ccc(-c2c3c(nc4sc(C(=O)Nc5cc(C)on5)c(N)c24)CCC3)cc1,"inconclusive: 8.91 µM [inhibitor, full curve]",
CCn1c2ccccc2c2cc(/C=N/NC(=O)c3ccc(O)cc3)ccc21,,inactive: -1.3%
Cc1cccn2c(/C=N/OCc3ccc(F)cc3)c(-c3ccc(Cl)cc3)nc12,"inconclusive: 3.98 µM [inhibitor, single point]",
Nc1cccn2c(-c3ccc(Cl)cc3)cnc12,"inconclusive: 28.2 µM [inhibitor, partial curve]",
CCn1cc(C2C(C(=O)Nc3cc(C)ccn3)=C(C)NC3=C2C(=O)CC(C)(C)C3)c(C)n1 (stereo not given),"inconclusive: 31.6 µM [inhibitor, partial curve]",
